Reference: ChEMBL document CHEMBL4888484, “Replenishing the malaria drug discovery pipeline: Screening and hit evaluation of the MMV Hit Generation Library 1 (HGL1) against asexual blood stage Plasmodium falciparum ,using a nano luciferase reporter read-out” (2022)
The whole screen tested about 150,000 compounds, of which about 540 (0.36%) showed an effect of 50% or more. The list shows a part of the results.

Each molecule was assayed on Plasmodium falciparum (assay: Primary screen in NF54 nanoGlo assay, in single point, at 2uM, 72h; a lower Z score goes with more inhibition). Conditions: timepoint 72 hour.
Format: functional, Erythrocyte

SMILES	% Inhibition [%]	Z score
COc1cccc(NC(=O)c2cc3occc3n2C)c1	21	-2.63
COc1ccc(-c2nc3cc(C)ccc3cc2CN(C)Cc2cc(C)[nH]n2)cc1	-2	0.39
CC(=O)Oc1c(-c2ccc(NC(=O)c3ccccc3Cl)cc2)c(-c2cccc(C)c2)nn1-c1cccc(F)c1	-6	0.78
CC(C)c1ncc(C(=O)N[C@@H](C)CCCCNC(=O)OC(C)(C)C)s1	-9	1.04
CCc1nc(C)sc1C(=O)N1CCN(C(C)C)[C@@H](CC)C1	5	-0.49
CC1CN(C(=O)Cc2c[nH]c3ccccc23)CC(C)O1 (stereo not drawn)	-7	1
Cc1cc(NC(=O)Nc2ccc3c(c2)OCO3)no1	-6	0.73
Cn1nc(C(=O)Nc2nc3ccccc3[nH]2)c2ccccc2c1=O	-13	1.22
O=C(c1ccc(Cl)cc1)N1CCN(c2nc3cc(Br)ccc3n3cccc23)CC1	-4	0.85
CC(=O)NCC(=O)NCC1CCN(c2cc(-c3ccc(Cl)cc3)n[nH]2)CC1	-10	1.05
O=C(CCC1CCN(Cc2ccccc2C(F)(F)F)CC1)NCc1ccc(F)cc1	8	-1.02
O=C(Nc1cccc(Cl)c1)Nc1cc(S(=O)(=O)N2CCOCC2)ccc1NC[C@H]1CCCO1	-6	0.92
OCCc1cnn(Cc2cnn(-c3ccccc3)n2)c1	-6	0.62
CC1CN(C(=O)OC(C)(C)C)CC1C(=O)NC1CCC(=O)N(C)C1 (stereo not drawn)	0	0
CCN(C(=O)c1nc(C)oc1C)C(C)C(O)c1ccccc1 (stereo not drawn)	-9	0.91
COC(=O)Cc1csc(CNC(=O)COCc2ccccc2C)n1	-6	1.31
CC(C)C(=O)NCc1ccc(-c2ccoc2)cc1	-10	1.11
Cn1ncc(Cl)c1CN1CCC(O)(Cc2cccc(F)c2)CC1	-9	1.46
O=C(Nc1nc(-c2ccc3c(c2)OCCO3)cs1)[C@@H]1COc2ccccc2O1	-7	0.75
O=C1NC(=O)[C@@]2(CCCN(C(=O)Nc3cccc4ccsc34)C2)N1	9	-1.18
Cc1c(C(=O)NCc2ccccc2CN2CCOCC2)cccc1N(C)S(C)(=O)=O	1	-0.08

SMILES	% Inhibition [%]	Z score
O=C1CCC2(CCN(C(=O)[C@H]3CCOC3)CC2)CN1Cc1ccco1	-8	1.51
Cc1ccc(N(C)C(=O)N2CCN(c3ccccn3)CC2)cc1	-2	0.38
Cc1nnc(N2CCC[C@H](n3ccc(C(F)(F)F)n3)C2)o1	-9	1.34
CCC1CN(C(=O)c2csc(CN)n2)CC(C)O1 (stereo not drawn)	-4	0.45
CO[C@@H](C(=O)N(c1nc(-c2ccccc2)c(C)s1)c1cccc(Cl)c1Cl)c1ccccc1	-9	1.22
Cc1c([C@@H]2CCCN2Cc2cccc3[nH]ccc23)cnn1C	4	-0.77
CCn1c(C(=O)Nc2ccccn2)nnc1N1CCC(OC)CC1	-15	1.98
CCn1c(CC2CCNCC2)nn(Cc2cc(C)cc(C)c2)c1=O	-16	2
O=C(Nc1nccs1)c1cc(N2CCC(Cc3ccccc3)CC2)nc2ccccc12	3	-0.35
c1cc(-c2nc([C@H]3CCOC3)no2)cc(-n2cnnc2)n1	-6	1.12
CCc1nc(C)c(C(=O)Nc2nn(CC(F)(F)F)c3cccc(OC(C)C)c23)o1	-14	1.34
COCc1sccc1C(=O)NCC1(S(C)(=O)=O)CCCCC1	0	-0.01
COc1cc(OC)cc(C(=O)N/C(=N/c2ccccc2)NCCN2CCOCC2)c1	-9	0.85
CCN1CCN(C(=O)c2ccc(OC)c(S(=O)(=O)N3CCCCC3)c2)CC1	-8	1.29
CCS(=O)(=O)N(C)C1CCN(C(=O)Cn2cnc3c2CCCC3)CC1	12	-1.37
CCc1nc(C)sc1Cn1ccnc1-c1ccc(C#CCO)s1	-13	1.88
COc1ccc(NC(=O)c2nc(-n3ccnc3)ncc2Br)cc1	-8	0.92
O=C(c1cncc(Br)c1)N1CC(Oc2nc3ccccc3s2)C1	-9	0.96
Cc1cc(=O)[nH]c2ccc(-c3cccc(C(=O)N4C[C@@H](C)O[C@@H](C)C4)c3)cc12	7	-0.94
COCc1ccc(C(=O)N(CCN(C)C)CC(C)C)cc1	4	-0.53
COCCCNC(=O)c1nn2c(C)cc(C)nc2c1-c1ccc(OC)c(S(=O)(=O)N2CCCCC2)c1	-9	0.88

SMILES	% Inhibition [%]	Z score
Cc1ccc(-c2noc(CN3C(=O)CCC3=O)n2)cc1	-19	2.29
CC(C)(C)c1cc(C(=O)NC2(c3ncon3)CCOCC2)[nH]n1	-9	0.96
COc1ccc([C@H](CO)N(C)CC(=O)N2CCCCCCC2)cc1	-1	0.15
O=C(Cc1ccccc1F)NC1(c2ccccc2)CCOCC1	-7	0.93
COc1cc(NC(=O)c2c(OC)cccc2OC)ccc1N1CCCCC1=O	-4	0.62
CCNC(=O)N1CC(C(=O)NCC2CC2)C(c2cccc(OC)c2OC)C1 (stereo not drawn)	-11	1.5
O=C(Cc1ccc(OC(F)F)c(F)c1)N[C@H]1CCn2ccnc21	12	-1.58
CC(C)[C@H]1CN(S(=O)(=O)c2cccnc2)C[C@@H]1N(C)C	1	-0.23
CCOc1cccc(CN(CCO)c2ncnc3oc(C)nc23)c1	-12	1.56
O=C(Nc1ccccc1)N1CCc2nc(N3CCc4ccccc4C3)nc(Oc3cccc(F)c3)c2C1	10	-1.2
O=C1NCCC[C@@H]1Oc1nc2ccccc2s1	4	-0.54
COCC1(CNC(=O)N(C)CCn2ccc3ccccc32)CCC1	-7	1.19
CN1C(=O)NC[C@H]1c1nc(-c2ccc(N3CCCCC3)cc2)no1	9	-1.79
Cc1ccc(-n2nc3c(c2NC(=O)c2cccs2)CS(=O)(=O)C3)cc1C	-14	2.33
COCCCN1CC(=O)N[C@@H]2CN(Cc3ccncc3)CC[C@@H]2OCc2cccc(c2)Oc2ccc(cc2OC)CCC1=O	-2	0.27
CCCS(=O)(=O)NCC(=O)N1CCCCCNC(=O)C[C@H]1c1ccccc1	-9	1.12
O=S(=O)(NCCN1c2ccccc2N(C2CC2)S1(=O)=O)N1CCOCC1	21	-2.74
CNS(=O)(=O)c1cc(F)ccc1Cl	-7	1.44
CN(C(=O)CCn1cc(S(N)(=O)=O)cn1)C1CCCCCC1	-21	1.95
CCOc1ccc2cc(C(=O)Nc3cc(C(N)=O)ccc3NCc3ccccc3)[nH]c2c1	-10	1.83
COc1ccc(Oc2c(CN(C[C@@H](O)Cc3ccccc3)C3CC3)c(-c3ccccc3)nn2C)cc1	-17	1.74

SMILES	% Inhibition [%]	Z score
COc1ccccc1C1(CNS(=O)(=O)c2c(C)nn(C)c2C)CCOCC1	-4	0.84
CC[C@H](C)NC(=O)N(Cc1cccc(OC)c1)C1CCC(O)CC1 (stereo partly drawn)	-11	1.24
O=C(O)CCCn1cc(NC(=O)C(c2ccccc2)c2ccccc2)cn1	28	-3.19
C[C@H](CO)N(C)Cc1ccc(Cl)c(F)c1	0	0.02
CN(C)C(=NCCS(=O)(=O)CC1CCC1)N(C)C	0	0.04
Cc1cc(C(=O)N(C)Cc2ccc(-n3cccn3)cc2)n(CCN(C)C)n1	-5	0.69
Cc1nn(C)c2nc(N(Cc3cnn(C)c3)CC(C)C)sc12	3	-0.48
CO[C@H]1CN(C(=O)CCc2ccc(C)cc2)C[C@@H]1O	0	-0.08
COCCc1noc(CNC(=O)c2cc(C3CC3)no2)n1	8	-1.46
Cc1nc(-c2cc(C)[nH]c(=O)c2)n(-c2cccc3cccnc23)n1	-10	1.25
CCN(CC)C(=O)CCS(=O)(=O)C1CCCC1	-6	0.77
O=C(c1cn2cccnc2n1)N(C1CCCCC1)C1CC1	-7	0.61
CCN(CC)C(=O)[C@@H]1C[C@H](N)CN1C1CCN(c2ccccc2Cl)CC1	-19	2.05
Cc1nc(Oc2cccc3c2OCCC3)ccc1C#N	-8	1.44
Cc1nnnn1C(Cc1ccccc1)C(=O)N1CCOC2CCCCC21 (stereo not drawn)	1	-0.2
CS(=O)(=O)c1cccc2c1N(C(=O)c1ocnc1C1CC1)CCC2	-14	2.62
O=C(Nc1nc2c(s1)CCC2)c1cccnc1Oc1ccc(F)cc1Br	3	-0.42
CC(C)(C)c1ccc(OCC2CCN(Cc3cc(C4CC4)on3)CC2)nn1	-9	1.06
CC(C)CCCOCc1cccc(N)c1	-3	0.28
CCCc1ncncc1C(=O)N1CC[C@@H]2OCc3cccc(c3)Oc3cc(OC(C)C)cc(c3)C(=O)N(CC)CC(=O)N[C@H]2C1	8	-1.15
CCn1cc(C(=O)N[C@@](C)(CC)CCO)cn1	-1	0.08
